# Measurements published in the supplement of paper PMC8728848.
# Only a selection was taken, and the strongest signals are over-represented in it overall.
# Test system: Gal(b1-4)GalNAc(b1-3)[Fuc(a1-2)]Gal(b1-4)GlcNAc
# Assay: glycan array binding signal (z-score within array); higher = stronger binding
# Details: glycan notation: IUPAC condensed, linker removed
# Summary of the method: (§1)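 From the Consortium for Functional Glycomics database, 3228 arrays were curated, keeping only those whose protein sequence was available. Binding is given as a within-array Z-score averaged across arrays sharing a protein sequence and across linkers. Negative Z-scores can be read as non-binding.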
row,Substance,glycan array binding signal (z-score)
1,NCAM1 (Homo sapiens) (chain not printed),1.3
2,CLEC-2 (Homo sapiens) (chain not printed),-0.061
3,Siglec-2 (Homo sapiens) (chain not printed),-0.223

# Test system: Gal(b1-4)GlcNAc(b1-2)Man(a1-3)Man(b1-4)GlcNAc(b1-4)GlcNAc
# Assay: as above
# Details: glycan notation: IUPAC condensed, linker removed
# Summary of the method: as §1
row,Substance,glycan array binding signal (z-score)
1,H-Ficolin (Homo sapiens) (chain not printed),-0.227
2,M-Ficolin G221F (Homo sapiens) (chain not printed),-0.18
3,M-Ficolin G221F A256V (Homo sapiens) (chain not printed),-0.274

# Test system: Gal(b1-4)GlcNAc(b1-2)Man(a1-6)[Man(a1-3)]Man(b1-4)GlcNAc(b1-4)GlcNAc
# Assay: as above
# Details: glycan notation: IUPAC condensed, linker removed
# Summary of the method: as §1
row,Substance,glycan array binding signal (z-score)
1,Thrombomodulin Extracellular (Homo sapiens) (chain not printed),0.667
2,H-Ficolin (Homo sapiens) (chain not printed),2.33
3,M-Ficolin G221F (Homo sapiens) (chain not printed),-0.185
4,FGF2 (chain not printed),-0.531
